Source: the supplement of paper PMC3334620
Whole data set: some 33,000 sequences, median “E-score (-0.5 to 0.5)” near -0.016, cut for the highest 2% near 0.32. The list shows a part of the results.

Each sequence was assayed against T1, Stp1 (UniProt B3LFK1) (assay: PBM E-score (8-mer binding enrichment) (E-score (-0.5 to 0.5)); higher = stronger / more preferred TF binding; most listed sequences are background and not binding sites). Conditions: protein concentration: 200 nM; construct: GST-full length.
T1 sequence: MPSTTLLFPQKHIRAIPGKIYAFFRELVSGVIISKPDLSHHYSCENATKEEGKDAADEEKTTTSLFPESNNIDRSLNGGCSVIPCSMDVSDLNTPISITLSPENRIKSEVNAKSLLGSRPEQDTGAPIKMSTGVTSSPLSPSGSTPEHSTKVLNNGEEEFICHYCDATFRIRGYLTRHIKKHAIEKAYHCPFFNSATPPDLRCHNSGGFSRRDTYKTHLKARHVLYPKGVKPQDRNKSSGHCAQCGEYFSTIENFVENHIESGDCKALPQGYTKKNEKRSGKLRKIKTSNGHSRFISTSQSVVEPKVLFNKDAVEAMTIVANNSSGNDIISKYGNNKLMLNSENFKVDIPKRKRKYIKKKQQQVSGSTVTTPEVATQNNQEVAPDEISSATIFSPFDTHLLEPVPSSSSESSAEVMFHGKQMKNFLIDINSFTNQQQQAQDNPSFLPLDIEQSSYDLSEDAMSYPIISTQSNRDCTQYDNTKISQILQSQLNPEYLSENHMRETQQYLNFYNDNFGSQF
Outline: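 Universal all-10-mer Agilent arrays, double-stranded by primer extension on fresh or once-stripped slides, were probed with about 100-200 nM GST-tagged yeast transcription factors made by PURExpress. Fluorescent anti-GST detected bound protein, and masliner normalised the scans. E-scores from the Universal PBM Analysis Suite were given to each ungapped eight-base word pooled with its reverse complement.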

Sequence	PBM E-score
TAAATCTA	0.0626
AGGGAAGG	-0.31
CCATTCTC	-0.0651
ACTTGCGC	0.0537
CGGTGTAG	-0.122
ATAGTACA	0.0423
AGACGTAC	-0.195
AACCTCTC	-0.213
AACGGCCG	0.333
CCCAGGCA	-0.162
CGATACTC	0.00075
CCGTGAGG	0.0309
CTGTTGGC	-0.186
ACGAGTGA	-0.0566
AGTTCTAT	-0.112
ATGCGGAG	-0.0518
ACAACATG	0.136
TCGTTAGA	-0.0359
GTAACTTA	-0.00295
GGTTTCAC	-0.0723
GCCTCTCA	0.00233
CATCCCGA	-0.00414
GTATAAAA	0.295
GGCTGGGA	-0.249
ACACCTAT	-0.0456

Sequence	PBM E-score
TGTTAGAA	0.0155
CGCGCGAC	0.12
ACACGCAC	0.0603
TCCGAACA	-0.0393
AAAGGGGA	-0.302
ACACTGTG	0.0704
AGTAAGTG	-0.12
TCTTAGCA	-0.0676
AGTGACCA	-0.242
GTGAACAC	-0.15
ATATATTA	0.329
GGCGCGAA	0.37
CGTACCAC	0.11
GCTACCCC	-0.292
CCCATGCC	-0.0109
CACGCAAC	0.214
AACACCTA	-0.0644
ACGGTCAC	-0.305
CAGCAGCC	0.0196
CCGCCAGA	-0.00376
GACACACA	0.0818
ATCCGCCC	-0.217
ACGCCACG	0.0972
CAGAAGGG	-0.188
TCCAGTAA	-0.233

Sequence	PBM E-score
TACTAGCA	-0.0131
AGTGTTTG	0.0488
CTTAGGAC	-0.0947
CCCACGAA	0.105
CGTTTCTA	0.033
ATTTCGCC	0.336
GATACCTA	0.00089
ATCATGAG	-0.00837
GATACAGA	0.124
ACGAATCG	0.182
CGGTTGCA	-0.0488
CGGAGCCG	0.302
AGCGAACG	-0.0739
AGCTACAC	0.00428
CTTCTCGC	0.0351
CGGCTGAC	0.0536
ACGATGTC	-0.0396
AGCGTTAT	-0.106
CCAAGATA	-0.0296
AACTGGCC	-0.0401
AAACCCTT	-0.142
CATCGCCA	0.0899
GATATCTA	-0.0487
CGCTTAGA	-0.263
GTTCTCTA	-0.0124

Sequence	PBM E-score
GAAGGTGC	-0.169
CATGCCAG	-0.0265
AATCCTGG	-0.129
GATAGGTA	-0.0532
GCTCGCGA	0.017
TCGATCGA	0.212
ACATTTAG	-0.195
AAGTTTGT	0.107
CCATCCGC	0.111
ACATCGTG	0.128
AAGGATTG	-0.0374
AGCACCAA	-0.118
GTCACATA	0.123
AACCGATC	0.0212
CTCCGGCC	-0.296
CACACACC	-0.176
CATCTCAC	0.0478
CTCTCTCA	-0.0887
ATGCCGTA	0.478
CGCATTGC	0.258
AAGTACCG	0.03
CACGCCTG	-0.136
CTGAACGA	-0.0923
TATACGGA	0.0644
CCCTTTAA	0.0854

Sequence	PBM E-score
AGACAGCC	-0.149
CCACCGTC	-0.0976
TATGCTAA	0.0381
AAGTTCTC	-0.115
AGTAAGCG	0.126
CGGATCAC	0.0376
GCCTTACA	0.208
ACGAGGAC	-0.161
CGCACTAA	-0.0203
CGTATCGC	0.126
TTCCACAA	0.163
TACAGCCA	-0.0214
CGTAATAA	0.0445
GCCCCCAC	-0.333
CTCCTCTC	-0.263
ATCGAAGA	0.171
GAGCCGAA	0.232
ATTCCACC	-0.056
AAGGGAAT	-0.147
ACTGACAC	0.074
AAAGAGGC	0.00916
ATGCAGGC	-0.111
CGATCCAC	-0.121
CCTCAAGG	-0.0722
TGGCGTAA	0.0095

Sequence	PBM E-score
AGGCGTGA	0.0215
CAAGGCAG	0.0951
CCGCTCCA	-0.0259
ACCCACCG	-0.133
GATAAGCC	-0.257
AACCGTAC	-0.0138
CCCCGTTC	-0.235
ACGTTAAT	0.112
CACCGAAC	0.205
CCGATCAG	0.058
TACCCAGA	-0.221
CACGCGTG	0.241
ATCGGGAA	-0.0127
CGTAGTTA	0.125
AGCGCACA	-0.322
GTAATCAC	0.0423
GGCTTGTA	0.00445
ACATGGGA	-0.0523
GAAGGGGA	-0.155
ATTACTAG	0.0532
ATTCCTGG	-0.0882
GCGGCCAA	0.161
ACACGGAC	0.217
CACAATTA	0.142
GTATGTAA	0.138

Sequence	PBM E-score
GACCGGTC	-0.341
GACCTTCC	-0.227
CATATTAG	0.209
AGGCTCCA	-0.0273
CCCGTAAA	0.226
CGCCGCAG	0.436
CGCTTGCA	-0.0492
ATTTTACA	-0.0146
CTCCCCTA	-0.205
CTCAATCC	-0.0026
GGCGACTA	0.106
TAGCCTCA	-0.04
ACGCCAGC	-0.0205
AATAAGAA	0.207
AGACTTCA	-0.264
GTCCTCTA	-0.345
AAAGAATA	0.143
TCCCGACA	-0.00548
AGGGCGTC	0.131
CTTCGTGC	0.159
ATGGGCCC	-0.218
CAACGGAC	0.165
